# Laboratory results from the supplement of paper PMC8728848.
# The list shows a part of the results.
# B1: PX14379A-bvu-539-28-539 (Bacteroides vulgatus) (protein)
# chain: EPYSEIIEEDYVPTEADEIALLATTYSQLRFVMDWYGLFDLQEESGDVIVTPTRPNGWDDGGTYKQMHKHTWDNQQGQPQSIWDYCYKGIANANKILKRADEGFFTEESKPKVVAEVKGVRALWYSILCDTHGNIPIQTSFSEEVPVQSTRKQVFDFIINELKEVMPNLPTEVNKSTYGRLTQWGAKCLMARMYLNAGVYTGTPMWNECLEQCNDIINSGLFSLETNYTDIFKTENSGCVETIFAIPYDEVYNEGDNNGPVFGAHMKFLSSNSRKVFNMQTTPWGGSAANPQFINSYDPDDMRLKYTWLQGDQYSPDGVLITTFPNKLPSIYKTDTDDGYRVGKYEIKVGAKSLLSNDFPYFRYTEVLLMKAECLLRLGQNETEAAHIVSQIRERAFRESAHPEKATVDAAWLKGDTHINYGTLDEKGQIDDAGNTEVVELGGLYDEWGWEFAAEARRRTDMIRFGTYQKKSWFNHTPTANDLNGNSILFPIHLDHLNTNPNLQQNPGYAGK
# What was measured:
# Assay in all cases: glycan array binding signal (z-score within array); higher = stronger binding
# Details in all cases: glycan notation: IUPAC condensed, linker removed
# [1] = biological target: GlcNAc(b1-3)Gal(b1-4)GlcNAc(b1-3)Gal(b1-4)GlcNAc(b1-3)GalNAc
# How it was run: (§1)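 Arrays were curated from the Consortium for Functional Glycomics database, 3228 in total, and kept only where the protein sequence was available. Binding is expressed as a within-array Z-score. This score was averaged across arrays of the same protein sequence at different concentrations or buffers and across linkers, and negative values can be read as non-binding.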
# [2] = biological target: GlcNAc(b1-3)Gal(b1-4)GlcNAc(b1-3)GalNAc
# How it was run: as §1
# [3] = biological target: GlcNAc(b1-3)Gal(b1-4)GlcNAc(b1-3)[GlcNAc(b1-3)Gal(b1-4)GlcNAc(b1-3)]GalNAc
# How it was run: as §1
# [4] = biological target: GlcNAc(b1-3)Gal(b1-4)GlcNAc(b1-6)[Gal(b1-3)]GalNAc
# How it was run: as §1
# [5] = biological target: GlcNAc(b1-3)Gal(b1-4)GlcNAc(b1-6)[GlcNAc(b1-3)Gal(b1-3)]GalNAc
# How it was run: as §1
# [6] = biological target: GlcNAc(b1-3)Gal(b1-4)GlcNAc(b1-6)[GlcNAc(b1-3)]Gal(b1-4)GlcNAc
# How it was run: as §1
# GlcNAc(b1-3)GalNAc = biological target: GlcNAc(b1-3)GalNAc
# How it was run: as §1
# GlcNAc(b1-3)Man = biological target: GlcNAc(b1-3)Man
# How it was run: as §1
# [7] = biological target: GlcNAc(b1-3)[GlcNAc(b1-4)][GlcNAc(b1-6)]GlcNAc
# How it was run: as §1
# [8] = biological target: GlcNAc(b1-3)[GlcNAc(b1-6)]Gal(b1-4)GlcNAc
# How it was run: as §1
# [9] = biological target: GlcNAc(b1-3)[GlcNAc(b1-6)]GalNAc
# How it was run: as §1
# [10] = biological target: GlcNAc(b1-4)Gal(b1-4)GlcNAc
# How it was run: as §1
# GlcNAc(b1-4)GlcNAc = biological target: GlcNAc(b1-4)GlcNAc
# How it was run: as §1
# [11] = biological target: GlcNAc(b1-4)GlcNAc(b1-4)GlcNAc
# How it was run: as §1
# [12] = biological target: GlcNAc(b1-4)GlcNAc(b1-4)GlcNAc(b1-4)GlcNAc(b1-4)GlcNAc
# How it was run: as §1
# [13] = biological target: GlcNAc(b1-4)GlcNAc(b1-4)GlcNAc(b1-4)GlcNAc(b1-4)GlcNAc(b1-4)GlcNAc
# How it was run: as §1
# [14] = biological target: GlcNAc(b1-4)[GlcNAc(b1-6)]GalNAc
# How it was run: as §1
# [15] = biological target: GlcNAc(b1-6)Gal(b1-4)GlcNAc
# How it was run: as §1
# GlcNAc(b1-6)GalNAc = biological target: GlcNAc(b1-6)GalNAc
# How it was run: as §1
# [16] = biological target: GlcNAc6S(b1-3)Gal(b1-4)GlcNAc
# How it was run: as §1
# Kdn(a2-3)Gal(b1-3)GalNAc = biological target: Kdn(a2-3)Gal(b1-3)GalNAc
# How it was run: as §1
# Kdn(a2-3)Gal(b1-3)GlcNAc = biological target: Kdn(a2-3)Gal(b1-3)GlcNAc
# How it was run: as §1
# Kdn(a2-3)Gal(b1-4)Glc = biological target: Kdn(a2-3)Gal(b1-4)Glc
# How it was run: as §1
# Kdn(a2-3)Gal(b1-4)GlcNAc = biological target: Kdn(a2-3)Gal(b1-4)GlcNAc
# How it was run: as §1
# [17] = biological target: Kdn(a2-3)Gal(b1-4)[Fuc(a1-3)]GlcNAc
# How it was run: as §1
# Kdn(a2-6)Gal(b1-4)GlcNAc = biological target: Kdn(a2-6)Gal(b1-4)GlcNAc
# How it was run: as §1
# [18] = biological target: Man(a1-2)Man(a1-2)Man(a1-3)Man
# How it was run: as §1
# [19] = biological target: Man(a1-2)Man(a1-2)Man(a1-6)[Man(a1-3)]Man
# How it was run: as §1
# Man(a1-2)Man(a1-3)Man = biological target: Man(a1-2)Man(a1-3)Man
# How it was run: as §1
# [20] = biological target: Man(a1-2)Man(a1-3)[Man(a1-2)Man(a1-6)]Man
# How it was run: as §1
# [21] = biological target: Man(a1-2)Man(a1-3)[Man(a1-2)Man(a1-6)]Man(a1-6)[Man(a1-2)Man(a1-2)Man(a1-3)]Man
# How it was run: as §1
# [22] = biological target: Man(a1-2)Man(a1-3)[Man(a1-2)Man(a1-6)]Man(a1-6)[Man(a1-2)Man(a1-2)Man(a1-3)]Man(b1-4)GlcNAc(b1-4)GlcNAc
# How it was run: as §1
# [23] = biological target: Man(a1-2)Man(a1-3)[Man(a1-6)]Man(a1-6)[Man(a1-2)Man(a1-3)]Man(b1-4)GlcNAc(b1-4)GlcNAc
# How it was run: as §1
# [24] = biological target: Man(a1-2)Man(a1-6)[Man(a1-3)]Man(a1-6)[Man(a1-2)Man(a1-2)Man(a1-3)]Man
# How it was run: as §1
# [25] = biological target: Man(a1-2)Man(a1-6)[Man(a1-3)]Man(a1-6)[Man(a1-2)Man(a1-2)Man(a1-3)]Man(b1-4)GlcNAc(b1-4)GlcNAc
# How it was run: as §1
# Man(a1-3)[Man(a1-6)]Man = biological target: Man(a1-3)[Man(a1-6)]Man
# How it was run: as §1
# [26] = biological target: Man(a1-3)[Man(a1-6)]Man(a1-6)[Man(a1-2)Man(a1-3)]Man(b1-4)GlcNAc(b1-4)GlcNAc
# How it was run: as §1
# [27] = biological target: Man(a1-3)[Man(a1-6)]Man(a1-6)[Man(a1-3)]Man
# How it was run: as §1
# [28] = biological target: Man(a1-3)[Man(a1-6)]Man(a1-6)[Man(a1-3)]Man(b1-4)GlcNAc(b1-4)GlcNAc
# How it was run: as §1
# [29] = biological target: Man(a1-3)[Man(a1-6)]Man(b1-4)GlcNAc(b1-4)GlcNAc
# How it was run: as §1
# [30] = biological target: Man(a1-3)[Man(a1-6)]Man(b1-4)GlcNAc(b1-4)[Fuc(a1-6)]GlcNAc
# How it was run: as §1
# Man(a1-6)Man = biological target: Man(a1-6)Man
# How it was run: as §1
# Man(b1-4)GlcNAc = biological target: Man(b1-4)GlcNAc
# How it was run: as §1
# MurNAc(b1-4)GlcNAc = biological target: MurNAc(b1-4)GlcNAc
# How it was run: as §1
# Neu5Ac(a2-3)Gal = biological target: Neu5Ac(a2-3)Gal
# How it was run: as §1
binder,measurement,setting,value
B1,glycan array binding signal (z-score),[1],-0.443
same,glycan array binding signal (z-score),[2],-0.209
same,glycan array binding signal (z-score),[3],-0.376
same,glycan array binding signal (z-score),[4],-0.068
same,glycan array binding signal (z-score),[5],0.142
same,glycan array binding signal (z-score),[6],-0.033
same,glycan array binding signal (z-score),GlcNAc(b1-3)GalNAc,-0.386
same,glycan array binding signal (z-score),GlcNAc(b1-3)Man,-0.278
same,glycan array binding signal (z-score),[7],-0.135
same,glycan array binding signal (z-score),[8],-0.115
same,glycan array binding signal (z-score),[9],-0.185
same,glycan array binding signal (z-score),[10],-0.294
same,glycan array binding signal (z-score),GlcNAc(b1-4)GlcNAc,-0.24
same,glycan array binding signal (z-score),[11],-0.493
same,glycan array binding signal (z-score),[12],-0.624
same,glycan array binding signal (z-score),[13],-0.486
same,glycan array binding signal (z-score),[14],-0.239
same,glycan array binding signal (z-score),[15],0.374
same,glycan array binding signal (z-score),GlcNAc(b1-6)GalNAc,0.423
same,glycan array binding signal (z-score),[16],-0.091
same,glycan array binding signal (z-score),Kdn(a2-3)Gal(b1-3)GalNAc,0.276
same,glycan array binding signal (z-score),Kdn(a2-3)Gal(b1-3)GlcNAc,-0.356
same,glycan array binding signal (z-score),Kdn(a2-3)Gal(b1-4)Glc,-0.162
same,glycan array binding signal (z-score),Kdn(a2-3)Gal(b1-4)GlcNAc,-0.652
same,glycan array binding signal (z-score),[17],0.162
same,glycan array binding signal (z-score),Kdn(a2-6)Gal(b1-4)GlcNAc,-0.058
same,glycan array binding signal (z-score),[18],-0.44
same,glycan array binding signal (z-score),[19],-0.451
same,glycan array binding signal (z-score),Man(a1-2)Man(a1-3)Man,-0.335
same,glycan array binding signal (z-score),[20],-0.377
same,glycan array binding signal (z-score),[21],-0.294
same,glycan array binding signal (z-score),[22],-0.272
same,glycan array binding signal (z-score),[23],-0.379
same,glycan array binding signal (z-score),[24],-0.405
same,glycan array binding signal (z-score),[25],-0.361
same,glycan array binding signal (z-score),Man(a1-3)[Man(a1-6)]Man,0.057
same,glycan array binding signal (z-score),[26],-0.093
same,glycan array binding signal (z-score),[27],0.788
same,glycan array binding signal (z-score),[28],-0.172
same,glycan array binding signal (z-score),[29],-0.355
same,glycan array binding signal (z-score),[30],-0.375
same,glycan array binding signal (z-score),Man(a1-6)Man,-0.293
same,glycan array binding signal (z-score),Man(b1-4)GlcNAc,-0.085
same,glycan array binding signal (z-score),MurNAc(b1-4)GlcNAc,-0.459
same,glycan array binding signal (z-score),Neu5Ac(a2-3)Gal,-0.355
